{"source": "ChEMBL document CHEMBL1157539", "about": "“Thousands of chemical starting points for antimalarial lead identification” (Nature, 2010)", "note": "Over roughly 13,000 compounds, “IFI” has its median near 4; the highest 2% begin near 17. Some of the results follow.", "data": [{"test": "GSK_TCMDC: Inhibition Frequency Index (IFI). The number of non-kinase HTS assays where a compound showed > 50 % inhibition, expressed as a percentage of the number of such assays in which the compound was tested (-0 is zero)", "type": "functional", "units": {"IFI": "%"}, "values": [{"smiles": "N=C1N=C(N)NCN1OCc1ccc(Cl)c(Cl)c1", "IFI": 0.72}, {"smiles": "N#Cc1ccc(CN2CCC(NC(=O)c3ccc(-c4nnc(-c5cccc6ccccc56)o4)cc3)CC2)cc1", "IFI": 7.8}, {"smiles": "Cc1c(Cc2ccccc2Cl)cnc2nc(N)nc(N)c12", "IFI": 2.94}, {"smiles": "O=C(/C=C/c1ccc(Cl)c(Cl)c1)NCCCCCN1CCC(NC(=O)NC2CCCCCC2)CC1", "IFI": 8.55}, {"smiles": "Oc1ccc(CCCc2cc(Oc3c(I)cc(CCc4ncc[nH]4)cc3I)ccc2O)cc1", "IFI": 10.3}, {"smiles": "O=C(NCc1cccc(C(F)(F)F)c1)C(c1cc2ccccc2o1)N1CCN(C(c2ccccc2)c2ccccc2)CC1", "note": "(stereo not drawn)", "IFI": 0.72}, {"smiles": "Oc1ccc(CN2CCC(NCc3cccc(C(F)(F)F)c3)CC2)cc1", "IFI": 1.34}, {"smiles": "Cc1ccccc1Oc1nc2ccccc2nc1SCC(=O)NC(C)C", "IFI": 6.82}, {"smiles": "Cc1ccc(-c2nnc(-c3ccc(C(=O)NC4CCN(Cc5ccc(C#N)cc5)CC4)cc3)o2)cc1Br", "IFI": 7.75}, {"smiles": "CCOc1cc(C(=O)Nc2ccccc2N2CCN(S(C)(=O)=O)CC2)cc(OCC)c1OCC", "IFI": -0}, {"smiles": "COc1ccc(-c2ccc(CN(C)C3CCC(NC(=O)c4cc5ccccc5[nH]4)CC3)cc2)cn1", "note": "(stereo not drawn)", "IFI": 4.35}, {"smiles": "COc1ccccc1-c1[nH]c2ccccc2c1CN1CCC(c2c(C)cccc2C)CC1", "IFI": 6.67}, {"smiles": "Oc1cc(Nc2ccnc3cc(-c4cccc(CN5CCCCC5)c4)ccc23)c(F)cc1Cl", "IFI": 8.96}, {"smiles": "COc1ccc2nc3cc(Cl)ccc3c(NCCCCN)c2c1", "IFI": 4.38}, {"smiles": "COc1cc2ccccc2c(OC)c1CCNCCCCNCCc1c(OC)cc2ccccc2c1OC", "IFI": 14.5}, {"smiles": "COc1cc(OC)nc(C(Sc2ccc(NC(=O)c3cccs3)cc2)c2ccccc2)n1", "note": "(stereo not drawn)", "IFI": 1.43}, {"smiles": "O=C(Cc1ccsc1)NCC(c1ccccc1Cl)c1c[nH]c2ccccc12", "note": "(stereo not drawn)", "IFI": 2.78}, {"smiles": "O=C(Cn1c(SCc2cccc(F)c2F)cc(=O)c2ccccc21)N(Cc1ccc(-c2ccc(C(F)(F)F)cc2)cc1)C1CCN(CCO)CC1", "IFI": 10.1}, {"smiles": "CCN(CC)/C(=N/C(=N)Nc1ccc(C)cc1)NCCCCCCN/C(=N\\C(=N)Nc1ccc(C)cc1)N(CC)CC", "IFI": 5.22}, {"smiles": "CC(C)Cc1ccc(N2CCN(CCCCNC(=O)c3ccc(NC(=O)c4cc(C(F)(F)F)cc(C(F)(F)F)c4)cc3)CC2)cc1", "IFI": 0}, {"smiles": "NC(=O)c1ccccc1Nc1nc(Nc2cc[nH]n2)ncc1Cl", "IFI": -0}, {"smiles": "O=C(/C=C/c1ccc(C(F)(F)F)cc1)NCCCCCN1CCCN(C(=O)Nc2ccc(Cl)cc2)CC1", "IFI": 9}, {"smiles": "CCCCNCc1ccc(OCc2cccc(COc3ccc(CNCCCC)cc3I)c2)c(I)c1", "IFI": 7.97}, {"smiles": "CC(C)(C)c1ccc(CN2CCC(CNC(=O)c3cc(-c4cccc(F)c4)cs3)C2)cc1", "note": "(stereo not drawn)", "IFI": 14.6}, {"smiles": "COc1ccccc1N1CCN(CCCCNC(=O)c2ccc(NC(=O)c3ccc(C(F)(F)F)cc3)cc2)CC1", "IFI": 3.1}, {"smiles": "CCCCN(CCCC)Cc1cc(Nc2ccnc3cc(Cl)ccc23)ccc1O", "IFI": 1.82}, {"smiles": "Brc1ccc(Nc2nc(NCC3CCCO3)c3ccccc3n2)cc1", "note": "(stereo not drawn)", "IFI": 7.04}, {"smiles": "Cc1ccc2[nH]c(C3CCCNC3)c(-c3ccncc3)c2c1", "note": "(stereo not drawn)", "IFI": 4.76}, {"smiles": "CN1CCN(CC(=O)Nc2ccc(-c3ccc(-c4nc5cc(C(F)(F)F)ccc5[nH]4)cc3)cc2)CC1", "IFI": 5.45}, {"smiles": "COC(=O)c1ccc(CCC(C)NCC(O)c2cccc(C(F)(F)F)c2)cc1", "note": "(stereo not drawn)", "IFI": 6.02}, {"smiles": "CCCCCCCCS(=O)(=O)NCCCC1CCN(CCCCCNC(=O)C=Cc2ccc(Cl)c(Cl)c2)CC1", "IFI": 8.63}, {"smiles": "CCOc1cccc(C(=O)Nc2ccc(-c3nc4ccccc4[nH]3)cc2)c1", "IFI": 2.74}, {"smiles": "COc1ccc(CCNc2nc(NCCc3cnc[nH]3)nc(NCc3cccc4ccccc34)n2)cc1OC", "IFI": 6.72}, {"smiles": "O=C(Nc1cccc(CN2CCN(Cc3ccc(O)cc3)CC2)c1)c1cc2ccccc2s1", "IFI": 2.97}, {"smiles": "O=C(Nc1ccc(Cn2nc(Cl)c(N3CCCNCC3)cc2=O)cc1)Nc1ccc(-c2ccccc2)cc1", "IFI": 8.28}, {"smiles": "O=C(Nc1ccc(-c2nc3cc4ccccc4cc3[nH]2)cc1)c1cccc(Br)c1", "IFI": 1.36}, {"smiles": "CC(=O)Nc1ccc(Nc2ncc([N+](=O)[O-])c(Nc3ccccc3C(N)=O)n2)cc1", "IFI": 2.92}, {"smiles": "N=C(Nc1ccccc1)Nc1cccc(Cc2ccc([N+](=O)[O-])cc2)n1", "IFI": 19.9}, {"smiles": "O=C(NCc1ccccc1)Nc1ccc(-c2ccc(-c3nc4cc(C(F)(F)F)ccc4[nH]3)cc2)cc1", "IFI": 1.01}, {"smiles": "O=C(CC(=O)Nc1cc(Cl)cc(Cl)c1)Nc1cc(Cl)cc(Cl)c1", "IFI": 0}, {"smiles": "CCC1CN2CCc3c([nH]c4ccccc34)C2CC1CC1NCCc2cc(OC)c(OC)cc21", "note": "(stereo not drawn)", "IFI": 7.81}, {"smiles": "Cn1ccnc1CNC(=O)c1ccc(-c2ccc(-c3nc4cc(C(F)(F)F)ccc4[nH]3)s2)cc1", "IFI": 4.59}, {"smiles": "Clc1ccc(-c2cc(-c3csc(NCCN4CCCCC4)n3)on2)cc1", "IFI": 13.3}, {"smiles": "FC(F)(F)COc1ccc(CNCCCCCCNCc2ccc(OCC(F)(F)F)c3ccccc23)c2ccccc12", "IFI": 21}, {"smiles": "COc1ccc2nccc([C@@H](O)CN3CCC(NCCOc4ccncc4)CC3)c2c1", "IFI": 0.75}, {"smiles": "CCN(CC)C(=O)C1CCCN(C(=O)Nc2cc(C(F)(F)F)cc(C(F)(F)F)c2)C1", "note": "(stereo not drawn)", "IFI": 6.82}, {"smiles": "CN(C)CCCOc1cc(NC(=O)Nc2ccc(-c3ccncc3)c3ccccc23)ccc1I", "IFI": 9.77}, {"smiles": "CCN1CCN(c2ccc(Nc3ccnc4ccc(Br)cc34)cc2)CC1", "IFI": 4.32}, {"smiles": "O=C(NC1CC1)c1cnc(N2CCC(c3ccccc3)CC2)c(Cl)c1", "IFI": 8.33}, {"smiles": "CC(=O)Nc1ccc(CN(C)C2CCN(c3cc(NC(=O)c4cccc(C)c4)ccn3)CC2)cc1", "IFI": 2.78}, {"smiles": "CC1(C)N=C(N)N=C(N)N1c1ccc(Oc2ccccc2)cc1", "IFI": 1.47}, {"smiles": "CCOC(=O)CCCCCNC[C@H](O)c1ccccc1", "IFI": 0}, {"smiles": "Cc1cc(Br)c(OCCCON2C(=N)N=C(N)NC2(C)C)c(Br)c1", "IFI": 10.4}, {"smiles": "O=C([C@H]1CCCCN1c1ccc([N+](=O)[O-])c2ccccc12)N1CCN(c2ncccn2)CC1", "IFI": 2.16}, {"smiles": "CN1CCC(NCc2ccc(-c3cccc(S(=O)(=O)NCc4ccccc4)c3)cc2)CC1", "IFI": 9.71}, {"smiles": "Cc1ccc2nc(C)n(C3CCN(C(=O)Cc4ccc(F)c(F)c4)CC3)c2c1", "IFI": -0}, {"smiles": "Cc1cc(N(C)C)nc(Nc2ccc(NS(=O)(=O)c3ccccc3)cc2)n1", "IFI": 9.62}, {"smiles": "CCC(C)NC(=O)Nc1ccc(-c2cccc(-c3nc4cccc(C)c4[nH]3)c2)cc1", "note": "(stereo not drawn)", "IFI": 4.85}]}]}
